Molecules are shown by their SMILES. About 540 (0.36%) of roughly 150,000 compounds showed an effect of 50% or more. The list shows a part of the results.

In the assay the test system is Plasmodium falciparum. In words: Primary screen in NF54 nanoGlo assay, in single point, at 2uM, 72h; a lower Z score goes with more inhibition. It is filed as functional, Erythrocyte. The conditions noted are these: timepoint 72 hour.
Broadly, the % Inhibition is the drop in the measured response relative to a control, in per cent. As for `O=C(O)[C@H]1CCCN(C(=O)c2cccc3[nH]ccc23)C1`, the “% Inhibition” value came to 1% and the Z score was -0.22.
The like results for `Cc1ccccc1-c1cnc(Cn2nc(C)c([C@@H]3COCCN3C)c2C)o1` were, in that order, -16% and 1.84.
For `O=C(CN1C(=O)COc2ccc(C(=O)N3CCN(Cc4ccccc4)CC3)cc21)N1CCCC1`, the “% Inhibition” value is -12% and the Z score came out at 1.59.
For the compound `C[C@@H](C(N)=O)N1CCN(C(=O)C2CCCC2)CC1`, the “% Inhibition” value is -9% and the Z score was 1.34.
In the case of `Cc1c(C#N)c(NC(=O)CN2CC(OCC(=O)N(C)C)C2)n(-c2ccccc2)c1C`, the “% Inhibition” value was found to be 8% and the Z score is on record as -1.09.
`CCOc1cc(C#N)c(Br)c(Br)c1O`: the “% Inhibition” value was 34% and the Z score is -3.8.
For the compound `CCCn1c(C)cnc1CC1CCN(C(=O)c2cnccc2C)CC1`, the “% Inhibition” value was -1% and the Z score worked out at 0.14.
Take `FC1(F)C[C@@H](c2nnc(-c3cnccn3)o2)N(C2CCC2)C1`: the “% Inhibition” value stood at 2% and the Z score is -0.3.
For `CC1(O)CN(C(=O)c2cc3c(Br)cccc3[nH]2)C1`, in that order: -3% and 0.35.
Regarding `Cc1cc(=O)n(CC(=O)N2CCCC[C@@H]2CCc2ccccc2)nc1C`, the “% Inhibition” value is recorded as -18% and the Z score came to 3.31.
For `C#CCCC1(CCC(=O)Nc2ccc3nc(C)nn3c2)N=N1`, in that order: -9% and 1.66.
In the case of `COc1cccc(CNCCN2CCOCC2)c1OCc1ccc(Cl)cc1Cl`, the “% Inhibition” value stood at 38% and the Z score is on record as -5.16.
Take `O=C(O)c1cc2c(-c3cccs3)nn(-c3ccccc3)c2[nH]1`: the “% Inhibition” value was found to be 3% and the Z score was -0.43.
The like results for `Cc1nc(O)cc(CCn2ccnc2-c2ncc[nH]2)n1` were, in that order, -7% and 0.64.
On to `Clc1ccccc1-n1nncc1CN1CCNCC1`, for which the “% Inhibition” value was -12% and the Z score is given as 2.23.
`CCN1CCC[C@@H]1CNC(=O)C1=Cc2ccccc2OC1`: the “% Inhibition” value is reported as -11% and the Z score came to 1.79.
The like results for `COc1ccc(S(=O)(=O)NCc2nc3cccnc3n2C)cc1` were, in that order, -2% and 0.25.
For `O=C(c1cccc2[nH]ccc12)N1CCN(S(=O)(=O)c2cccc3nonc23)CC1`, in that order: -5% and 0.71.
On to `O=C(Nc1cccnc1-n1nc(C(F)(F)F)cc1C(F)(F)F)c1cccc(C(F)(F)F)c1`, for which the “% Inhibition” value was determined as 1% and the Z score is on record as -0.09.
With `CCc1nnc(C2CCN(S(=O)(=O)c3ccc(C)cc3)CC2)s1`, the “% Inhibition” value is -11% and the Z score is on record as 1.72.
For `C=CCn1nc(C)c(CN2CCc3[nH]cnc3[C@@H]2c2cc(C)no2)c1C`, the “% Inhibition” value stood at 5% and the Z score is recorded as -0.48.
As to `CCCC(=O)NCCC[C@H]1CCCN1C(=O)OC(C)(C)C`, the “% Inhibition” value is 1% and the Z score is given as -0.11.
Regarding `O=c1[nH]c(=O)n(C[C@H]2Cc3ccccc3O2)cc1Cl`, the “% Inhibition” value is on record as -6% and the Z score came out at 0.88.
The like results for `NC(=O)c1ccc(=O)n(CCc2ccccc2)n1` were, in that order, -14% and 2.59.
Consider `Cn1nc(C(=O)Nc2cc(S(=O)(=O)N3CCOCC3)ccc2N2CCCC2)c2ccccc2c1=O`, for which the “% Inhibition” value is given as -1% and the Z score was determined as 0.07.
Regarding `Cc1ccc(Nc2c(-c3cc4ccccc4cc3O)nc3ncccn23)cc1`, the “% Inhibition” value was determined as 35% and the Z score was -4.7.
On to `CN(C)c1nc(/C=C/C2CCCCC2)ncc1F`, for which the “% Inhibition” value stood at 7% and the Z score is -1.09.
In the case of `CN(C(=O)c1ccc2[nH]nnc2c1)[C@H]1CCCN(CCCc2ccccc2)C1`, the “% Inhibition” value is given as -13% and the Z score was 1.68.
In the case of `O=C(CN1C(=O)c2cccnc2Oc2ccccc21)N1CCC(N2CCCCC2)CC1`, the “% Inhibition” value is on record as -11% and the Z score is recorded as 1.41.
The like results for `Cc1noc(C)c1CCC(=O)N1CC2(CCC2)[C@@H]1C1CC1` were, in that order, -2% and 0.37.
With `Cc1ccc(CN2CCNC(=O)[C@@H]2CC(=O)N2CCN(c3ncnc(C)c3C)CC2)o1`, the “% Inhibition” value is on record as -7% and the Z score stood at 0.72.
Consider `Cc1cnc(NC(=O)COC2CCCCC2)s1`, for which the “% Inhibition” value is on record as -8% and the Z score is 0.73.
In the case of `CC(C)CC1NC2(C(=O)N(Cc3ccccc3F)c3ccccc32)C2C(=O)N(c3cccc(Cl)c3)C(=O)C12` (stereo unspecified), the “% Inhibition” value came to 35% and the Z score is -4.
Regarding `CC(C)(O)CCc1ccc(C(=O)N2CCNC(=O)[C@@H]2Cc2c[nH]cn2)cc1`, the “% Inhibition” value stood at 4% and the Z score was -0.51.
For `COc1ccccc1[C@H]1CN(C(=O)NC2CCCC2)C[C@@H]1C(=O)O`, in that order: 4% and -0.31.
In the case of `O=C(NS(=O)(=O)N1CCc2ccccc21)c1cc(F)c(Cl)cc1F`, the “% Inhibition” value turned out to be 9% and the Z score was -1.21.
Take `CC(C)n1nccc1[C@@H]1OCCC[C@H]1c1nc(-c2cncs2)no1`: the “% Inhibition” value is -9% and the Z score is 1.13.
The like results for `Cc1n[nH]c(C2CC2)c1C(=O)N1CCC[C@H](O)CC1` were, in that order, 1% and -0.16.
For the compound `CCc1ccc(S(=O)(=O)[C@H]2CS(=O)(=O)C[C@@H]2NCc2ccc(OC)c(OC)c2)cc1`, the “% Inhibition” value was -11% and the Z score is 1.48.
On to `O=C(Nc1c[nH]c(=O)[nH]c1=O)c1cc(O)ncn1`, for which the “% Inhibition” value is -5% and the Z score is given as 0.93.
For `O=C(CN1CC[C@@]2(CCCN(Cc3ccc(F)c(F)c3)C2=O)C1)N1CCOCC1`, in that order: 5% and -0.66.
With `O=C(NCc1nnc2ccc(N3CCCC3)nn12)c1ccc(=O)[nH]n1`, the “% Inhibition” value came to 17% and the Z score was -2.18.
Turning to `C#CCN(C(=O)c1ncoc1C(C)C)[C@H]1CCS(=O)(=O)C1`, the “% Inhibition” value was 5% and the Z score is given as -0.66.
Turning to `O=C(COc1ccccn1)NC1CCCC1`, the “% Inhibition” value was 7% and the Z score is given as -1.44.
On to `COc1ccc(-n2c(C)cc(C(=O)N(C)C3C4CCOC4C3(C)C)c2C)cc1` (stereo unspecified), for which the “% Inhibition” value was 14% and the Z score is listed as -1.73.
For `Cc1ccc(C)c(NC(=O)[C@H]2CCCN(C(=O)Cc3cccc4ccccc34)C2)c1`, in that order: -6% and 1.01.
Consider `CC[C@H]1C[C@@H](NC(C)=O)C[C@@H](c2nc(C(C)C)cs2)O1`, for which the “% Inhibition” value is reported as -9% and the Z score stood at 1.08.
Turning to `N[C@H](c1nc(C2CCOCC2)nn1-c1ccncc1)C1CC1`, the “% Inhibition” value is reported as -13% and the Z score was 1.5.
With `Cc1cc(-c2cccnc2)nn1CCNC(=O)NCc1cccs1`, the “% Inhibition” value is given as 27% and the Z score is reported as -3.48.
In the case of `CN(C(=O)NCCN1CCCOCC1)C1CC1`, the “% Inhibition” value was -1% and the Z score came to 0.1.
For `CCN(C(=O)c1cccnc1)c1ncccc1C`, in that order: -9% and 1.02.
For the compound `COc1ccc(NC(=O)c2ccc(C)nc2C2CCN(C(=O)c3c(F)cccc3F)CC2)cc1`, the “% Inhibition” value is 6% and the Z score was -0.7.
`CC(C)c1nc(C2CCCN(C(=O)C3COCCO3)C2)no1` (stereo unspecified): the “% Inhibition” value was -11% and the Z score was 1.64.

(Values after ChEMBL document CHEMBL4888484, “Replenishing the malaria drug discovery pipeline: Screening and hit evaluation of the MMV Hit Generation Library 1 (HGL1) against asexual blood stage Plasmodium falciparum ,using a nano luciferase reporter read-out” (2022).)
